# PubChem BioAssay AID1865 (National Center for Advancing Translational Sciences (NCATS), 2009)
# Hit rate of the full screen: of about 280,000 compounds, about 540 (0.19%) were called active. This list was built around the results that the source calls inconclusive (neither active nor inactive); the mix of calls is not that of the screen. The call rests on the fitted dose curve; in most records, active means well fitted activation curve with a large enough effect; inconclusive means small, poorly fitted or top-dose-only effect; inactive means flat fitted curve, though single readings scatter. Potencies beside an inconclusive call are fits to weak or partial responses and may not hold up.
# Assay: Quantitative High-Throughput Screen for Regulators of Epigenetic Control; further: nearly all actives have a fitted effect of over 60% in size; on GFP activation: % of control where 0% means no effect
# Details: murine LDR cells, GFP reporter derepression, 30 h; GFP activation: at 53.9 µM (top of the series)
# Outline: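 Murine LDR cells bearing a silenced CMV-driven GFP reporter were exposed to compound for 30 h at 37 C. After PBS washes, GFP-positive cells (20-120 um objects) counted by laser-scanning microplate cytometry.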
# Potency means the concentration at half of the fitted maximal effect; tags describe the fitted curve by direction and shape.
Structure (SMILES),Potency,GFP activation
N=c1n(CC(=O)c2ccc([N+](=O)[O-])cc2)c2ccccc2n1Cc1ccc(Cl)cc1,active: 15.8 µM,
COCCNc1oc(COc2cccc(C)c2)nc1C#N,"inconclusive: 1.41 µM [activator, partial curve, poor fit]",
Cc1ccc(OCC(O)Cn2c(N3CCOCC3)nc3c2c(=O)[nH]c(=O)n3C)cc1 (centres undefined),"inconclusive: 3.98 µM [activator, single point]",
O=C(N/N=C1/C(=O)c2cccc3cccc1c23)c1ccc(Cl)cc1,"inconclusive: 17.8 µM [activator, single point]",
COc1cccc(CNC(=O)CN2C(=O)CCn3nc(-c4cn(C)c5ccccc45)cc32)c1OC,,inactive: 4.22%
CCOC(=O)CC1C(=O)NCCN1c1nc2ccc(C)cn2c(=O)c1/C=C1\SC(=S)N(CC(C)C)C1=O (centres undefined),active: 3.55 µM,
CC1CN(c2nc3ccccc3nc2C(C#N)C(=O)NC2CCCCC2)CC(C)O1 (centres undefined),"inconclusive: 15.8 µM [activator, single point]",
Cc1cc(C)c(NC(=O)Cn2c(=O)n(Cc3ccc(C(=O)NCc4ccco4)cc3)c(=O)c3sccc32)c(C)c1,"inconclusive: 15.8 µM [activator, single point]",
CN1C2CCC1/C(=C\c1ccc(F)cc1)C(=O)/C2=C/c1ccc(F)cc1,"inconclusive: 31.6 µM [activator, single point]",
Cc1[nH]n(C2=NCCS2)c(=O)c1N=Nc1cccc(C(F)(F)F)c1,"inconclusive: 25.1 µM [activator, single point]",
Oc1ccc(/C=N/n2cnn(Cc3ccccc3Cl)c2=S)c(O)c1,,inactive: -1.11%
Nc1ccc(O)cc1C(=O)OCC(=O)c1ccc(C2CCCCC2)cc1,"inconclusive: 5.62 µM [activator, single point]",
NNc1nc(-c2ccccc2)cc(-c2ccccc2O)n1,,inactive: -0.404%
C=C(NC(=O)C(=C)NC(=O)c1csc(C2=NC3c4csc(n4)C4NC(=O)c5csc(n5)C(C(C)(O)C(C)O)NC(=O)C5CSC(=N5)C(=CC)NC(=O)C(C(C)O)NC(=O)c5csc(n5)C3(CC2)NC(=O)C(C)NC(=O)C(=C)NC(=O)C(C)NC(=O)C(C(C)CC)NC2C=Cc3c(C(C)O)cc(nc3C2O)C(=O)OC4C)n1)C(N)=O (centres undefined),"inconclusive: 35.5 µM [activator, single point]",
O=C(c1ccccc1)C1C(=O)c2ccccc2C1=O,"inconclusive: 31.6 µM [activator, single point]",
NS(=O)(=O)c1ccc(Nc2ccc([N+](=O)[O-])c3nonc23)cc1,,inactive: 1.49%
CN(c1ccccc1)S(=O)(=O)c1nnc(NC(=O)C2CCCCC2)s1,,inactive: 0%
COc1ccc2nc(N3CCC(O)CC3)c(C#N)cc2c1,,inactive: 2.24%
NC(=S)Nc1nc2ccccc2s1,"inconclusive: 22.4 µM [activator, single point]",
COc1ccc(C(=O)COC(=O)[C@H](C)Nc2ccc(C(F)(F)F)cc2[N+](=O)[O-])c(OC)c1,"inconclusive: 31.6 µM [activator, single point]",
COc1ccccc1N1CCN(C(=O)c2coc(=O)c(Br)c2)CC1,"inconclusive: 35.5 µM [activator, single point]",
Cc1ccc(-n2c(=O)c3c4c(sc3n(Cc3ccccc3C)c2=O)CCC4)cc1C,,inactive: -1.43%

Structure (SMILES),Potency,GFP activation
COc1cccc(CNC(=O)c2oc3c(c2C)-c2nn(Cc4cccc(Cl)c4)cc2CC3)c1,"inconclusive: 25.1 µM [activator, single point]",
COc1ccc(-c2cc(C(F)(F)F)nc(SCC(=O)Nc3sc4c(c3C#N)CCC4)n2)cc1,"inconclusive: 17.8 µM [activator, single point]",
Nc1cc(-c2ccc(Cl)cc2)nn1S(=O)(=O)c1cccc2nsnc12,,inactive: 0.781%
CCC1C/C(=C/c2ccco2)C(=O)/C(=C/c2ccco2)C1 (centres undefined),"inconclusive: 31.6 µM [activator, single point]",
Cc1ccc(NC(=O)CCn2c(=O)c3cccn3c3ccccc32)c(Cl)c1,,inactive: 2.24%
COc1ccc(C(=O)CN2CCN(S(=O)(=O)c3ccc(C(C)C)cc3)CC2)cc1,,inactive: -1.3%
Cc1noc(C)c1-c1nc(Nc2ccncc2)c2ccccc2n1,"inconclusive: 22.4 µM [activator, single point]",
CCC(=O)NC(c1cccs1)c1ccc2cccnc2c1O (centres undefined),active: 3.98 µM,
Cc1ccccc1-c1nc(S(=O)(=O)c2ccc(Br)cc2)c(NCc2cccnc2)o1,,inactive: 0.781%
COc1cc2c(cc1OC)C(COc1ccc3c(C)cc(=O)oc3c1)N(C(=O)c1ccc(C)c(C)c1)CC2 (centres undefined),,inactive: 0.312%
Cc1ccc(N=Cc2sc(O)c3ccccc23)cc1,active: 15.8 µM,
Cc1nc2ccccn2c(=O)c1NC(=O)c1ccccc1Cl,"inconclusive: 22.4 µM [activator, single point]",
COc1ccc(C(=O)/C=C/C(=O)N(CC(=O)NC2CCCCC2)Cc2ccccc2OC)c(O)c1,"inconclusive: 3.55 µM [activator, single point]",
O=[N+]([O-])c1ccc(N/N=C/c2c[nH]c3ccccc23)cc1,active: 14.1 µM,
COc1cc(C(C[N+](=O)[O-])c2c(N)n(C)c(=O)n(C)c2=O)ccc1O (centres undefined),"inconclusive: 31.6 µM [activator, single point]",
O=C(N/N=C/c1cccc(OC2CSC2)c1)c1ccccc1O,,inactive: -2.33%
CC(C)(C)c1ccc(OCCC(=O)NC2=NCCS2)cc1,,inactive: 0%
CCOC(=O)c1c(-c2ccccc2)csc1/N=C/C1C(=O)CCCC1=O,,inactive: 5.77%
O=C(CCSCCc1ccccn1)Nc1ccc(Cc2ccncc2)cc1,"inconclusive: 35.5 µM [activator, single point]",
NC(=S)N/N=C/c1ccccc1OCc1cccc(Cl)c1,"inconclusive: 35.5 µM [activator, single point]",
Cc1ccc2c(c1)Sc1c(ccc3ccccc13)N2,"inconclusive: 35.5 µM [activator, single point]",
CCN(CC)c1ccc2cc(-c3nnc(-c4ccncc4)o3)c(=O)oc2c1,active: 0.562 µM,
